{"source": "PubChem BioAssay AID485344", "about": "(National Center for Advancing Translational Sciences (NCATS), 2010)", "note": "Among all 340,000 compounds or so, about 6,900 (2%) were called active. Rule as the data show it: active = inhibition above about 30%; inactive = below that, where a call was filed. This is a selection; strong and weak results do not stand in their true shares. Where no call is shown, the source filed none. Some compounds were tested as several samples or in several runs, with calls that do not always agree."}
{"biological_target": "D(2) dopamine receptor (Homo sapiens) (UniProt P14416)", "sequence (P14416 whole entry, looked up)": "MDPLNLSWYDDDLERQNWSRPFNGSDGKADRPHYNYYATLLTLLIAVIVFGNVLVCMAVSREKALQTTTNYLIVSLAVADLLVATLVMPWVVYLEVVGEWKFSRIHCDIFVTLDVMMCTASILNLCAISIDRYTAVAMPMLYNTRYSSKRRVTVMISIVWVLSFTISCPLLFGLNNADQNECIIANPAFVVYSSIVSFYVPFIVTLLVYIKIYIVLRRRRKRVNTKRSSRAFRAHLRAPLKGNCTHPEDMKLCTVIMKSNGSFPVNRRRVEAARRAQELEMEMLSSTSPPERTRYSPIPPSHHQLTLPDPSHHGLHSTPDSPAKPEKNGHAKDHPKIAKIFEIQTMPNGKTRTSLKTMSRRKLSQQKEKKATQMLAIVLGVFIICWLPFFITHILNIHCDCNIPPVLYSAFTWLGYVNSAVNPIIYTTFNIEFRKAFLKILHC", "test": "HTS Assay for Allosteric Antagonists of the Human D2 Dopamine Receptor: Primary Screen for Antagonists; also: 0% is about no effect", "details": "HEK293 TREx D2 cells, calcium flux, dopamine EC80; at 10 µM; stronger effect = higher value", "how_it_was_run": "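Calcium flux kinetic readout in an inducible HEK293 TREx D2 line plated overnight at 30 C. After 180 s compound exposure, an EC80 dopamine challenge follows with another 180 s kinetic read to detect antagonism.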"}
{"smiles": "O=C(Cn1cc(C(=O)c2ccncc2)c(=O)c2cc(F)ccc21)Nc1ccc(Cl)cc1", "inhibition": "-25.9%"}
{"smiles": "O=C1c2[nH]nc(-c3ccccc3O)c2C(c2cccc(O)c2)N1Cc1ccncc1", "note": "(stereo not drawn)", "inhibition": "11.4%"}
{"smiles": "COCCCNC(=O)N1[C@H](c2cccs2)[C@@H](C)C(=O)[C@@H](C)[C@@H]1c1cccs1", "inhibition": "20%"}
{"smiles": "O=C(CN1C(=O)COc2ccc(S(=O)(=O)N3CCCC3)cc21)N1CCN(c2ccc(Cl)cc2)CC1", "inhibition": "-1.53%"}
{"smiles": "O=C(NC1CC2CCCC(C1)N2Cc1ccccc1)c1cccc(F)c1", "note": "(stereo not drawn)", "inhibition": "active: 83.5%"}
{"smiles": "Cc1ccc2c(c1)N(S(=O)(=O)c1cc(-c3onc(C)c3C)ccc1C)CCO2", "inhibition": "-7.35%"}
{"smiles": "COc1cccc(-n2cc(C(=O)OCc3ccc(F)c(F)c3)c3ccccc3c2=O)c1", "inhibition": "6.45%"}
{"smiles": "COc1ccccc1CNC(=O)CCn1c(=O)c2ccccc2n(CC(=O)Nc2ccc(Br)cc2F)c1=O", "inhibition": "3.09%"}
{"smiles": "Cc1ccc(O)c(NC(=O)c2noc3c2CCCC3)c1", "inhibition": "14.5%"}
{"smiles": "CCOCCn1ccc2c(OCC(=O)NCc3ccc(C)cc3)cccc2c1=O", "inhibition": "-0.337%"}
{"smiles": "CN(C)CCNC(=O)c1ccc2c(c1)N(Cc1ccccc1)C(=O)c1ccccc1S2(=O)=O", "inhibition": "5.35%"}
{"smiles": "CCCSc1ncc(Cl)c(C(=O)NCc2ccc(OC)cc2)n1", "inhibition": "-12.9%"}
{"smiles": "COc1ccc(-c2cn3nc(N4CCCC(C(=O)Nc5cccc(Cl)c5C)C4)sc3n2)cc1", "note": "(stereo not drawn)", "inhibition": "-0.979%"}
{"smiles": "COc1cccc(-c2cc(C(=O)Nc3cc(OC)c(OC)c(OC)c3)no2)c1", "inhibition": "active: 43.7%"}
{"smiles": "N#Cc1ccccc1NC(=O)C(=O)NCCc1csc2nc(-c3cccc(F)c3)nn12", "inhibition": "12.5%"}
{"smiles": "COc1ccc(OC)c(CNC(=O)CN(c2ccc(C)cc2)S(=O)(=O)N(C)C)c1", "inhibition": "16.3%"}
{"smiles": "Cc1cccc(NC(=O)N2CCN(C)c3ncccc32)c1C", "inhibition": "-11.3%"}
{"smiles": "CCOc1ccccc1CNC(=O)c1ccc(NC(=O)N2CC(C)Sc3ccccc32)cc1", "note": "(stereo not drawn)", "inhibition": "8.75%"}
{"smiles": "O=C(NC1(C(F)(F)F)C(=O)Nc2c1c(=O)[nH]c(=O)n2-c1ccccc1)c1ccccc1", "note": "(stereo not drawn)", "inhibition": "2.89%"}
{"smiles": "CCOc1ccc(C(=O)NCc2nc3cccnc3n2Cc2cccc(OC)c2)cc1", "inhibition": "-11.1%"}
{"smiles": "CCCN(CCC)C(=O)Cn1c(SCc2cccc(C(F)(F)F)c2)nc2cccnc21", "inhibition": "2.27%"}
{"smiles": "O=C(Cn1c(=O)oc2cc(S(=O)(=O)N3CCCCCC3)ccc21)Nc1ccc(F)cc1F", "inhibition": "-3.62%"}
{"smiles": "O=C(Nc1cc2c(cc1C(=O)c1cccc(Br)c1)OCCO2)c1ccccc1F", "inhibition": "-7.61%"}
{"smiles": "CCOC(=O)c1cc2c(=O)n3ccccc3nc2n(Cc2ccco2)c1=NC(=O)c1ccc(C)c(C)c1", "inhibition": "0.946%"}
{"smiles": "CN(c1ccccc1)S(=O)(=O)c1nnc(NC(=O)COc2ccccc2)s1", "inhibition": "22.4%"}
{"smiles": "CC1(C)S[C@@H]2[C@H](NC(=O)Cc3ccccc3)C(=O)N2[C@H]1C(=O)O", "inhibition": "active: 32.8%"}
{"smiles": "Cc1ccc(-n2c(=O)c3ccc(C(=O)NCc4ccco4)cc3n(CC(=O)Nc3ccccc3C(F)(F)F)c2=O)cc1", "inhibition": "12.1%"}
{"smiles": "Cc1cc(C)cc(-n2c(C)cc(C(=O)C(=O)Nc3nnc(C)s3)c2C)c1", "inhibition": "20.7%"}
{"smiles": "CN(C(=O)Cn1cnc2onc(-c3ccc(F)cc3)c2c1=O)c1ccccc1Cl", "inhibition": "4.99%"}
{"smiles": "CCCN(C(=O)Cn1ncc2c1-c1ccccc1OC2)c1cccc(C)c1", "inhibition": "-0.0504%"}
{"smiles": "CCc1ccc(-c2nc(SCC(=O)NCC3CCCO3)c(-c3ccc(C)cc3)[nH]2)cc1", "note": "(stereo not drawn)", "inhibition": "20%"}
{"smiles": "Cc1cccc(C)c1NC(=O)Cn1c(=O)n(CCCS(=O)(=O)C2CCCCC2)c(=O)c2ccccc21", "inhibition": "13.4%"}
{"smiles": "Cc1cccc(N2CCN(c3ccc(C(=O)O)cc3NC(=O)c3cccc(Cl)c3)CC2C)c1", "note": "(stereo not drawn)", "inhibition": "-3.57%"}
{"smiles": "CSCC[C@@H](C(=O)Nc1cccc(F)c1)N1Cc2ccccc2C1=O", "inhibition": "9.66%"}
{"smiles": "O=C(CSc1nccn1C1CCCC1)Nc1cccc(F)c1", "inhibition": "-15.4%"}
{"smiles": "CCOC(=O)C1CCN(c2c(C(=O)c3ccc(OC)cc3)cnc3ccccc23)CC1", "inhibition": "6.9%"}
{"smiles": "COc1ccc(CCNC(=O)c2nc(SCc3ccccc3F)ncc2Cl)cc1OC", "inhibition": "-18.5%"}
{"smiles": "CCOCCc1nn2c(=O)cc(COC(=O)Cc3ccccc3)nc2s1", "inhibition": "4.12%"}
{"smiles": "COc1ccc(NC2=CC(=O)CC(c3ccccc3)C2)c(OC)c1", "note": "(stereo not drawn)", "inhibition": "active: 31%"}
{"smiles": "COc1ccc(CCNC(=O)[C@H](C)NC(=O)N2CCn3c2nc2ccccc23)cc1OC", "inhibition": "active: 37.2%"}
{"smiles": "Cc1ccc(NC(=O)NC(=O)N(C(C)C)S(=O)(=O)c2ccc(C)cc2)cc1", "inhibition": "active: 43.5%"}
{"smiles": "Cc1nn2c(=O)cc(COC(=O)c3ccc(NC(=O)c4cccc(Br)c4)cc3)nc2s1", "inhibition": "-5.23%"}
{"smiles": "COc1ccccc1NC(=O)CSc1nc(-c2ccc(C)cc2)nc2c1Cc1c(CO)cnc(C)c1O2", "inhibition": "10.6%"}
{"smiles": "COc1ccc(-c2cn3nc(N4CCCC(C(=O)Nc5ccccc5OC)C4)sc3n2)cc1", "note": "(stereo not drawn)", "inhibition": "3.95%"}
{"smiles": "CCn1c(C)c(C)c2cc(C(=O)NCc3ccc(OC(C)C)cc3)ccc21", "inhibition": "5.43%"}
{"smiles": "COc1ccc2c(c1)cc1c(=O)n(CC(=O)NCCCOC(C)C)nc(C)n12", "inhibition": "-11.2%"}
{"smiles": "COc1cc2c(C(=O)N3CCN(c4cccc(C(F)(F)F)c4)CC3)cn(CC(C)C)c(=O)c2cc1OC", "inhibition": "-7.78%"}
{"smiles": "COc1ccc(NC(=O)Cn2c(=O)n(Cc3ccc4c(c3)OCO4)c(=O)c3ccc(C(=O)NC4CCCCC4)cc32)cc1", "inhibition": "-2.54%"}
{"smiles": "CCOCCCNc1nc2ccccc2n2c(CC)nnc12", "inhibition": "-4.3%"}
{"smiles": "O=C(NC1(C(F)(F)F)C(=O)Nc2c1c(=O)[nH]c(=O)n2-c1ccccc1)c1ccccc1Cl", "note": "(stereo not drawn)", "inhibition": "-7.94%"}
{"smiles": "COc1cc(OC)cc(-c2cc3nc(C)c(CCC(=O)Nc4ccc(C(C)=O)cc4)c(C)n3n2)c1", "inhibition": "-1.2%"}
{"smiles": "C=Cc1ccc(Cn2c(=O)cc(C)c3c(C)nn(-c4ccccc4)c32)cc1", "inhibition": "3.31%"}
{"smiles": "CC(C)c1ccc(CNc2nc(-c3ccco3)nn2C(=O)c2ccc([N+](=O)[O-])cc2)cc1", "inhibition": "-17.6%"}
{"smiles": "CSCCC(NS(=O)(=O)c1ccc2c(c1)oc(=O)n2C)C(=O)Nc1ccc(Cl)cc1", "note": "(stereo not drawn)", "inhibition": "-17.3%"}
{"smiles": "COc1ccc(OCC(=O)N(Cc2cccs2)c2ccc(OC)cc2)cc1", "inhibition": "-0.91%"}
{"smiles": "COCc1cc(C)nc2sc3c(c12)NC(c1ccc(O)c(OC)c1)N(c1ccccc1)C3=O", "note": "(stereo not drawn)", "inhibition": "15.2%"}
{"smiles": "COc1ccccc1CNC(=O)C1CCCN(c2nnc(C)c3c(C)n(-c4ccccc4)nc23)C1", "note": "(stereo not drawn)", "inhibition": "-5.37%"}
{"smiles": "CCOC(=O)c1c(C)[nH]c(C)c1S(=O)(=O)NCC1CCN(Cc2cccc(Cl)c2)CC1", "inhibition": "active: 78%"}
